# Screen size: about 310,000 compounds; about 2,200 (0.71%) showed an effect of 50% or more. Effects have a minus sign here. The list shows a part of the results.
# Molecular target: human ether-à-go-go-related gene (hERG) potassium channel (human, UniProt Q12809)
# Assay: primary screen, population patch clamp on CHO cells stably expressing hERG
# Chain of human ether-à-go-go-related gene (hERG) potassium channel (Q12809 whole entry, looked up): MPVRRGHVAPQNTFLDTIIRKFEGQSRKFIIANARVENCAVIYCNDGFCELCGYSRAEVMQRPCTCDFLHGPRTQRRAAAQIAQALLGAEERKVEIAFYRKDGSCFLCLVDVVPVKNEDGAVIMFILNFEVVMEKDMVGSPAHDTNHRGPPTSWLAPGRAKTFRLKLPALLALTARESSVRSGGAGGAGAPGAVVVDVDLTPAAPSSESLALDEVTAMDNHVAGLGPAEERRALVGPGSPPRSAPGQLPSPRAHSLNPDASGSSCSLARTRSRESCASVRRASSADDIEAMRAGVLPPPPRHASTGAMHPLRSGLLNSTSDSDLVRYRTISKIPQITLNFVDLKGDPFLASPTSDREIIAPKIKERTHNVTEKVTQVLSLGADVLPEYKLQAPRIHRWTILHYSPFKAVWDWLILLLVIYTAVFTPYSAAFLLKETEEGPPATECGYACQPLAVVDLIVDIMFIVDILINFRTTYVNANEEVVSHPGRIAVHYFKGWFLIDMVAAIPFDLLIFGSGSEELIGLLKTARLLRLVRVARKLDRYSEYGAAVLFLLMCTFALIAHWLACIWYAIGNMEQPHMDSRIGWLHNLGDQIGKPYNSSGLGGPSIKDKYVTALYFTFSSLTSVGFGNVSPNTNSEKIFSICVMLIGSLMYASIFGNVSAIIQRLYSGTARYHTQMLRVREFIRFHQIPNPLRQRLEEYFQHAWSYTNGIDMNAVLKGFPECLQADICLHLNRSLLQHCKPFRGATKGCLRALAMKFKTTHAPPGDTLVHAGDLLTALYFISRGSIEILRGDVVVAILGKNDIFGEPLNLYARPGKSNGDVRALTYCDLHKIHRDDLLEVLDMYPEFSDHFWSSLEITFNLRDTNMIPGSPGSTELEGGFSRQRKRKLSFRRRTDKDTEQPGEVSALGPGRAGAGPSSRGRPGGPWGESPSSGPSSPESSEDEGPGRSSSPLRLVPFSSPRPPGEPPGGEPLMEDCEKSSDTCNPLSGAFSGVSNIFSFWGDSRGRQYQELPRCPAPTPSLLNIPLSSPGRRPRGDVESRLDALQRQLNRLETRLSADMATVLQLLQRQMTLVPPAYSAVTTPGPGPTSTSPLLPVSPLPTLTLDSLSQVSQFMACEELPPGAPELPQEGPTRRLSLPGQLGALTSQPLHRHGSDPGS
row,SMILES,"hERG current change (%, negative = inhibition) at 1uM [%]"
1,O=C(CC1NCCc2ccccc21)Nc1ccc(Oc2ccccc2)cc1 (stereo not shown),9.78
2,CCC1CCCCN1CCCNC(=O)CCCNC(=O)Cn1cnc2sc3c(c2c1=O)CCCC3 (stereo not shown),7.49
3,COc1ccc(CCN2CC(C(=O)N(C)Cc3ccc4nsnc4c3)CCC2=O)cc1 (stereo not shown),-15.9
4,O=C1CCN(CCc2ccccc2)CCN1[C@H](COc1ccccc1)Cc1ccccc1,-60.4
5,CCC(=O)NC(c1ccccc1Cl)c1c(O)ccc2ccccc12 (stereo not shown),-0.883
6,O=C(Nc1cccc(C(F)(F)F)c1)Oc1ccccc1N1CCOCC1,17.4
7,COc1ccccc1N1CCN(C(=O)COc2cccc3ccccc23)CC1,12.1
8,CC(C)C(=O)Nc1c(-c2cccc(Cl)c2)c(=O)c2ccccc2n1C,23.7
9,COc1ccc2c(c1)OC[C@H]1[C@H]2N2C(=O)c3cc(Cl)ccc3NC(=O)[C@@]2(C)[C@H]1c1ccccc1,-1.92
10,CC(=O)n1cc(N(C(=O)CCl)c2ccc([N+](=O)[O-])cc2)c2ccccc21,-0.778
11,COc1ccc(/C=N/NC(=O)c2ccoc2C)cc1O,6.72
12,Cc1[nH]c2ccccc2c1/C=N/Nc1cccc(C(=O)O)c1,5.56
13,c1ccc(-c2n[nH]c(-c3ccccc3)c2-c2nc3ccccc3[nH]2)cc1,7.06
14,Cc1cc(/C=N\NC(=O)CC(=O)NC2CCCCC2)c(C)n1-c1ccc(Cl)cc1,1.8
15,Cc1cc(C)n(CC(=O)NNC(=O)CCNC(=O)c2ccccc2Cl)n1,8.63
16,CC1CCC(NC(=O)CCNC(=O)c2ccc(Br)cc2)CC1 (stereo not shown),15.8
17,O=C(C1CCCCC1)N(CCN1CCCC1)c1nc2ccccc2s1,10.7
18,Cc1c(Cl)cccc1NC(=O)C(=O)NNC(=O)c1ccccc1F,6.21
19,COc1ccc(C(=O)NC(CCSC)C(=O)NC2CC2)cc1 (stereo not shown),12.3
20,Nc1nc(SCc2ccc(F)cc2)ns1,3.6

row,SMILES,"hERG current change (%, negative = inhibition) at 1uM [%]"
1,Cl.O=C(NCCCN1CCOCC1)C(=O)c1c[nH]c2ccccc12,5.13
2,Nc1ccc(C(=O)NCC(=O)O)cc1,14.5
3,COC(=O)c1ccc(CS(=O)(=O)c2ccc(C)cc2)o1,19.4
4,CC1=C(C(=O)Nc2ccccc2)C(c2cc(CN3CCOCC3)cs2)C2=C(CCCC2=O)N1 (stereo not shown),15.6
5,C=CCN(CC=C)C(=O)C(=O)c1ccn(-c2c(C)csc2C(=O)OC)c1,-59.3
6,Nc1[nH]nc2nc(N3CCCC3)nc(-c3ccccc3)c12,0.157
7,O=C(O)[C@H](Cc1ccccc1)NC(=O)C(c1ccccc1)(c1ccccc1)c1ccccc1,19.4
8,Cn1c(=O)[nH]c(=O)c2c1nc(NC1CCCCC1)n2CCO,-5.54
9,CCCCN(C)C(=O)c1nc2ccccn2c1CN1CCSCC1,12.1
10,Cc1ccc(C(=O)NCC(=O)OC(C)C(=O)Nc2ccc(N(C)C)cc2)s1 (stereo not shown),11.3
11,Cc1c(O)nc2sc3ccccc3n2c1=O,11.7
12,CCN(Cc1ccccc1)C(=O)Cn1c(C(C)O)nc2ccccc21 (stereo not shown),-2.61
13,O=C(c1ccc(S(=O)(=O)N2CCCCCC2)cc1)N1CCN(c2ccccn2)CC1,-3.53
14,Cc1ccc(C(=O)C[n+]2cccc(C(N)=O)c2)cc1.[Br-],17.8
15,Cc1cccc(C(=O)NC(=S)N(C)C2CCCCC2)c1,0.369
16,CC(=O)c1ccc(OCc2cc(=O)n3ccsc3n2)cc1,9.72
17,Clc1ccc(C2=NNC(=NCc3ccc4c(c3)OCO4)SC2)cc1,5.08
18,COc1ccc(CCNC(=O)CCNS(=O)(=O)c2cc(Br)cnc2N)cc1OC,13.7
19,C=CCn1c(SCCC)nc(O)cc1=O,2.13
20,Cc1ccc(CC(=O)Nc2nccs2)cc1,10.8

row,SMILES,"hERG current change (%, negative = inhibition) at 1uM [%]"
1,O=C(NC1CCCC1)c1cccc(S(=O)(=O)N2CCCC2)c1,15.1
2,Cc1ccc(NC(=O)CCC(=O)NNC(=S)Nc2ccc(F)cc2)c(C)c1,12.8
3,CN1CCN(c2nc3c(c(=O)[nH]c(=O)n3C)n2Cc2ccccc2F)CC1,13.9
4,CC(=O)Nc1ccc(NC(=O)CSc2ccc(-c3sc(C)nc3C)nn2)cc1,4.29
5,CC(Oc1ccc(F)cc1)C(=O)Nc1cc(Cl)ccc1-n1cncn1 (stereo not shown),-3.12
6,Cc1cccc(NC(=S)NCc2cccs2)c1,10.7
7,Nc1ccc(-c2nc3ccc([N+](=O)[O-])cc3[nH]2)cc1,12.4
8,O=C(N/N=C/c1ccc2c(c1)OCO2)c1ccc(NC(=O)c2ccccc2Cl)cc1,15.3
9,CSc1ccccc1NC(=O)c1cc(S(=O)(=O)N(C)C)ccc1N1CCCC1,-20.8
10,O=C1CSC(c2ccc(F)c(F)c2)N1c1ccccc1F (stereo not shown),10.5
11,CCOc1ccc(NCC(=O)Nc2ccc(C)cc2C)cc1,9.27
12,CN(CC(=O)Nc1ccc(Cl)cc1)C(=O)Cn1[nH]c(=O)c2ccccc2c1=O,9.93
13,O=C(O)C(=O)O.c1ccc(OCCCN2CCCC2)cc1,5.39
14,Cc1ccc(-c2n[nH]c3c2C(c2ccccc2)N(c2ccc(C(=O)O)cc2)C3=O)cc1 (stereo not shown),9.59
15,CCC(=O)Nc1ccc(NC(=O)C23CC4CC(CC(C4)C2)C3)cn1,10.1
16,O=C(OCC(=O)N1CCN(c2ccccc2)CC1)c1ccc2ccccc2n1,-2.8
17,O=C(O)/C=C/C(=O)N1CCN(C(=O)/C=C/C(=O)O)CC1,-0.705
18,CCOC(=O)c1c(NC(=O)Nc2ccc(F)cc2)sc2c1CCN(C)C2,12.5
